# In patent EP1383793B1 (priority 2000, dated 2001):
# At least one peptide structure holds a part that was inferred or is arguable (an end, a ring closure or a residue). Residues, ends and D or L forms follow the SMILES beside them. No end group written: not given here. *: point of attachment. Biotin = O=C1N[C@H]2[C@H](CS[C@H]2CCCCC(=O)*)N1
# Tested on: adipocytes
# Test: 3H-glucose uptake into adipocytes (fat cell assay, FFC)
# Format: cell-based, Mouse
# Set-up: key to FFC: 0 is no effect; + is agonist; - is antagonist
# Details: not given
row,Molecule,FFC
1,DPFYQGLWEWLRESGEE-NH2 [Clone S289],0
2,QSDSGTVHDRFYGWFRDTWAS-NH2 [Clone S179],+
3,FYDWF-NH2 [Clone S165],0
4,CC(C)[C@H](NC(=O)[C@H](Cc1ccccc1)NC(=O)[C@H](Cc1c[nH]c2ccccc12)NC(=O)[C@H](CC(=O)O)NC(=O)[C@H](Cc1ccc(O)cc1)NC(=O)[C@H](Cc1ccccc1)NC(=O)[C@H](CC(N)=O)NC(=O)[C@H](C)NC(=O)[C@H](Cc1c[nH]cn1)NC(=O)[C@@H](N)Cc1ccccc1)C(=O)N[C@@H](CCCNC(=N)N)C(=O)N[C@@H](CCC(N)=O)C(=O)N[C@H](C(=O)N[C@@H](CO)C(=O)N[C@@H](CCCCN)C(=O)N[C@@H](CCCCN)C(N)=O)C(C)C [Clone S111],0
5,FYDWFKK-NH2 [Clone S166],0
6,APVSTEELRWGALLFGQWAG-NH2 [Clone S283],0
7,AFYEWFAKK-NH2 [Clone S214],0
8,CSCC[C@H](NC(=O)[C@H](CC(C)C)NC(=O)[C@H](CCCNC(=N)N)NC(=O)[C@H](CC(=O)O)NC(=O)[C@H](CC(C)C)NC(=O)[C@H](C)NC(=O)[C@H](CC(=O)O)NC(=O)[C@@H](N)CC(C)C)C(=O)N[C@@H](CCCNC(=N)N)C(=O)N[C@@H](Cc1ccc(O)cc1)C(=O)N[C@@H](Cc1ccccc1)C(=O)N[C@@H](CCC(=O)O)C(=O)N[C@@H](CCC(=O)O)C(=O)N[C@@H](CCCNC(=N)N)C(=O)N1CCC[C@H]1C(=O)N[C@@H](CO)C(=O)N[C@@H](CC(C)C)C(N)=O [Clone S173],0
9,FAENFYDWFVRQVSKK-NH2 [Clone S112],+
10,FHENFYDWFVRAVSKK-NH2 [Clone S107],+
11,AFYKWFAKK-NH2 [Clone S216],0
12,AHENFYDWFVRQVSKK-NH2 [Clone S113],+
13,NGVERAGTGDNFYDWFVAQLH-NH2 [Clone S176],+
14,QSFYDYIEELLGGEWKK-NH2 [Clone S288],0
15,AFYDWFAK-NH2 [Clone S180],0
16,QAPSNFYDWFVREWDEE-NH2 [Clone S287],0

row,Molecule,FFC
1,LDRQFYRYFQDLLVGFM-NH2 [Clone S260],0
2,AFYGWFAKK-NH2 [Clone S215],0
3,CC(C)C[C@H](NC(=O)[C@@H]1CCCN1)C(=O)N[C@@H](C)C(=O)N[C@@H](CCC(=O)O)C(=O)N[C@@H](CC(C)C)C(=O)N[C@@H](Cc1c[nH]c2ccccc12)C(=O)N[C@@H](C)C(=O)N[C@@H](Cc1ccc(O)cc1)C(=O)N[C@@H](Cc1ccccc1)C(=O)N[C@@H](CCC(=O)O)C(=O)N[C@@H](Cc1c[nH]cn1)C(=O)N[C@@H](CO)C(=O)N[C@@H](CCC(=O)O)C(=O)N[C@@H](CCC(N)=O)C(=O)NCC(=O)N[C@@H](CCCNC(=N)N)C(=O)N[C@@H](CO)C(=O)N[C@@H](CO)C(=O)N[C@@H](C)C(=O)N[C@@H](Cc1c[nH]cn1)C(N)=O [Clone S174],0
4,AFYDWFA-NH2 [Clone S181],0
5,GFREGQRWYWFVAQVT-NH2 [Clone S278],0
6,ALEEEWAWVQVRSIRSGLPL-NH2 [Clone S284],0
7,FHENFYDWFVAQVSKK-NH2 [Clone S108],+
8,EHWNTVDPFYFTLFEWLRESG-NH2 [Clone S177],0
9,HLSVGEELSWWVALLGQWAR-NH2 [Clone S282],0
10,CC(C)[C@H](NC(=O)[C@H](Cc1ccccc1)NC(=O)[C@H](Cc1c[nH]c2ccccc12)NC(=O)[C@H](CC(=O)O)NC(=O)[C@H](Cc1ccc(O)cc1)NC(=O)[C@H](Cc1ccccc1)NC(=O)[C@H](CC(N)=O)NC(=O)[C@H](CCC(=O)O)NC(=O)[C@H](Cc1c[nH]cn1)NC(=O)[C@@H](N)Cc1ccccc1)C(=O)N[C@@H](CCCNC(=N)N)C(=O)N[C@@H](CCC(N)=O)C(=O)N[C@H](C(=O)N[C@@H](CO)C(=O)N[C@@H](CCCCN)C(=O)N[C@@H](CCCCN)C(=O)NCCC[C@H](NC(=O)[C@H](CCCCN)NC(=O)[C@H](CCCCN)NC(=O)[C@H](CO)NC(=O)[C@@H](NC(=O)[C@H](CCC(N)=O)NC(=O)[C@H](CCCNC(=N)N)NC(=O)[C@@H](NC(=O)[C@H](Cc1ccccc1)NC(=O)[C@H](Cc1c[nH]c2ccccc12)NC(=O)[C@H](CC(=O)O)NC(=O)[C@H](Cc1ccc(O)cc1)NC(=O)[C@H](Cc1ccccc1)NC(=O)[C@H](CC(N)=O)NC(=O)[C@H](CCC(=O)O)NC(=O)[C@H](Cc1c[nH]cn1)NC(=O)[C@@H](N)Cc1ccccc1)C(C)C)C(C)C)C(N)=O)C(C)C [Clone S153],+
11,RWPNFYGYFESLLTHFS-NH2 [Clone S257],0
12,TGHRLGLDEQFYWWFRDALSG-NH2 [Clone S265],0
13,AAAAFYDWFAAAAAKK-NH2 [Clone S168],0
14,WGRSFYRYFETLLAQGI-NH2 [Clone S261],0
15,AFYDWF-NH2 [Clone S182],0
16,CC(C)C[C@H](NC(=O)CNC(=O)[C@H](CO)NC(=O)[C@H](Cc1ccccc1)NC(=O)[C@H](Cc1ccc(O)cc1)NC(=O)[C@H](CO)NC(=O)[C@H](Cc1ccc(O)cc1)NC(=O)[C@H](Cc1ccccc1)NC(=O)[C@H](CC(=O)O)NC(=O)[C@H](Cc1c[nH]c2ccccc12)NC(=O)CNC(=O)[C@@H](N)CCC(=O)O)C(=O)N[C@@H](CC(C)C)C(=O)N[C@@H](C)C(=O)N[C@@H](CO)C(=O)N[C@H](C(=O)N[C@H](C(N)=O)[C@@H](C)O)C(C)C [Clone S259],0

# Same assay, conditions: Subjective ranking; basal and sub maximal insulin; includes series A
row,Molecule,Resp.
1,CSCC[C@H](NC(=O)[C@H](CCCNC(=N)N)NC(=O)[C@H](CCC(=O)O)NC(=O)[C@@H]1CCCN1C(=O)[C@H](CC(=O)O)NC(=O)[C@@H](N)CCCCN)C(=O)N[C@@H](CCC(N)=O)C(=O)N[C@@H](CO)C(=O)N[C@@H](CC(=O)O)C(=O)N[C@H](C(=O)NCC(=O)N[C@@H](Cc1ccccc1)C(=O)N[C@@H](Cc1ccc(O)cc1)C(=O)N[C@@H](CCC(=O)O)C(=O)N[C@@H](Cc1c[nH]c2ccccc12)C(=O)N[C@@H](Cc1ccccc1)C(=O)N[C@@H](CCCNC(=N)N)C(=O)N[C@@H](C)C(=O)N[C@@H](C)C(=O)N[C@H](C(=O)NCC(=O)N[C@@H](CCCCN)C(=O)N[C@@H](CCCCNC(=O)CCCC[C@@H]1SC[C@@H]2NC(=O)N[C@@H]21)C(N)=O)C(C)C)C(C)C [Clone D111] (H-KDPERMQSDVGFYEWFRAAVGKK(Biotin)-NH2),0
2,CC[C@H](C)[C@H](NC(=O)[C@@H](N)CCCCN)C(=O)NCC(=O)NCC(=O)N[C@@H](CCC(N)=O)C(=O)NCC(=O)N[C@@H](CCC(N)=O)C(=O)N[C@@H](Cc1c[nH]cn1)C(=O)N[C@@H](CCC(N)=O)C(=O)N[C@@H](CC(=O)O)C(=O)NCC(=O)N[C@@H](CC(N)=O)C(=O)N[C@@H](Cc1ccccc1)C(=O)N[C@@H](Cc1ccc(O)cc1)C(=O)N[C@@H](CC(=O)O)C(=O)N[C@@H](Cc1c[nH]c2ccccc12)C(=O)N[C@@H](Cc1ccccc1)C(=O)N[C@H](C(=O)N[C@@H](CCC(=O)O)C(=O)N[C@@H](C)C(=O)N[C@@H](CC(C)C)C(=O)N[C@@H](C)C(=O)N[C@@H](CCCCN)C(=O)N[C@@H](CCCCNC(=O)CCCC[C@@H]1SC[C@@H]2NC(=O)N[C@@H]21)C(N)=O)C(C)C [Clone D101] (H-KIGGQGQHQDGNFYDWFVEALAKK(Biotin)-NH2),0
